For assay [1], the target named is T1, human PD-L1 (PD-L1 aAPC/CHO-K1 cells) (human, UniProt Q9NZQ7). Nature of the assay: cell-based or functional assay.
For assay [2], the target named is T2, TGF-β3.
T2 sequence (P10600 301-412, species assumed, looked up): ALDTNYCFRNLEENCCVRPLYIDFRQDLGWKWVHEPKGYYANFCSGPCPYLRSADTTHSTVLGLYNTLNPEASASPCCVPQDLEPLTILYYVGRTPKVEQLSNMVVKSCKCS
Briefly: SPR, TGFβ ligand amine-coupled to chip, fusion protein as analyte, 25 °C, HBS-EP.

Assay [3] addresses T3, TGF-β2.
T3 sequence (P61812 303-414, species assumed, looked up): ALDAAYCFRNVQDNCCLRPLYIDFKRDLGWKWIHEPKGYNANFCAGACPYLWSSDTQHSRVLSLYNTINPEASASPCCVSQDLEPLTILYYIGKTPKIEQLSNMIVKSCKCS
The description is as above.

For assay [4], the target named is TGF-β1. Described as above.
Sequence of TGF-β1 (P01137 279-390): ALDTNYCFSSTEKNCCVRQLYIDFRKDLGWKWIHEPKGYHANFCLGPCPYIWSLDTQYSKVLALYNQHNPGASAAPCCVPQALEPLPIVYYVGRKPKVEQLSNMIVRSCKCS
Assay [5] deals with T1, human PD-L1 (PD-L1 aAPC/CHO-K1 cells). Briefly: cell-based or functional assay. This is another data set of the same source.
T1 sequence (Q9NZQ7 19-290): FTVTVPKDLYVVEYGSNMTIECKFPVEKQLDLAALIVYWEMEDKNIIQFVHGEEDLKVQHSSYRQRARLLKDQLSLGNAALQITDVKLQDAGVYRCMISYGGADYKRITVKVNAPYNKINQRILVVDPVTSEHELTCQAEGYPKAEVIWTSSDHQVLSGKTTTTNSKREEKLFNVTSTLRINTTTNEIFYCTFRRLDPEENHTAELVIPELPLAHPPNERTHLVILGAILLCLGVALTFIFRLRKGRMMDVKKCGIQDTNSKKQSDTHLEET

Read-outs that look alike come from different tables or passages of the source.

B1: ADD19-15-03 (other)
heavy: EVQLVQSGAEVKKPGASVKVSCKASGYIFTGYGITWVRQAPGQGLEWMGEIFPRRVQTYYSEKFKGRVTMTTDTSTSTAYMELRSLRSDDTAVYYCARDYDPYFALDYWGQGTTVTVSSASTKGPSVFPLAPSSKSTSGGTAALGCLVKDYFPEPVTVSWNSGALTSGVHTFPAVLQSSGLYSLSSVVTVPSSSLGTQTYICNVNHKPSNTKVDKRV[gap - human IgG1 Fc]
light: DIQMTQSPSSLSASVGDRVTITCRASQDVSTAVDWYQQKPGKAPKLLIYSASYRYTGVPDRFSGSGSGTDFTFTISSLQPEDIATYYCQQHYSIPFTFGQGTKLEIKRTVAAPSVFIFPPSDEQLKSGTASVVCLLNNFYPREAKVQWKVDNALQSGNSQESVTEQDSKDSTYSLSSTLTLSKADYEKHKVYACEVTHQGLSSPVTKSFNRGECGGGGSGGGGSGGGGSGGGGSGIPPHVQKSVNNDMIVTDNNGAVKFPQLCKFCDVRFSTCDNQKSCMSNCSITSICEKPQEVCVAVWRKNDENITLETVCHDPKLPYHDFILEDAASPKCIMKEKKKPGETFFMCSCSSDECNDNIIFSEEYNTSNPD
notes: Anti-PD-L1 IgG1 with TBRII-ECD at the C-terminus of the light chain by G21-linker; also called GSADD19-15-03
For the molecule B1, the “EC50, luminescence (RLU) of PD-1 effector cells co-cultured with PD-L1 aAPC/CHO-K1 cells, PD-1/PD-L1 blockade bioassay” value in assay [1] amounted to 0.474 nM. Also, in assay [2], the Kd is 1.31 nM, the koff came to 0.000385 s⁻¹ and the kon is 293000 M⁻¹ s⁻¹. Moreover, in assay [3], the dissociation constant Kd came to 17.2 nM, the koff was found to be 0.00411 s⁻¹ and the kon was determined as 239000 M⁻¹ s⁻¹. In assay [4], this molecule had a Kd of 1.3 nM, a koff of 0.00042 s⁻¹ and a kon of 324000 M⁻¹ s⁻¹.

B2: ADD19-15-07 (other)
heavy: EVQLVQSGAEVKKPGASVKVSCKASGYIFTGYGITWVRQAPGQGLEWMGEIFPRRVQTYYSEKFKGRVTMTTDTSTSTAYMELRSLRSDDTAVYYCARDYDPYFALDYWGQGTTVTVSSASTKGPSVFPLAPSSKSTSGGTAALGCLVKDYFPEPVTVSWNSGALTSGVHTFPAVLQSSGLYSLSSVVTVPSSSLGTQTYICNVNHKPSNTKVDKRV[gap - human IgG1 Fc]GGGGSGGGGSGGGGSGGGGSGIPPHVQKSVNNDMIVTDNNGAVKFPQLCKFCDVRFSTCDNQKSCMSNCSITSICEKPQEVCVAVWRKNDENITLETVCHDPKLPYHDFILEDAASPKCIMKEKKKPGETFFMCSCSSDECNDNIIFSEEYNTSNPD
light: B1 light
notes: TBRII-ECD on both heavy and light chain C-termini; also called GSADD19-15-07
For B2, in assay [2], the Kd amounted to 0.542 nM, the koff was found to be 0.000168 s⁻¹ and the kon was found to be 310000 M⁻¹ s⁻¹. Moreover, in assay [3], the Kd was 8.14 nM, the koff was 0.00228 s⁻¹ and the kon came out at 280000 M⁻¹ s⁻¹. In assay [4], the Kd amounted to 0.226 nM, the off-rate constant (koff) was 6.77e-05 s⁻¹ and the kon turned out to be 299000 M⁻¹ s⁻¹.

B3: ADD19-15-L03-G4 (other)
heavy: B1 heavy
light: DIQMTQSPSSLSASVGDRVTITCRASQDVSTAVDWYQQKPGKAPKLLIYSASYRYTGVPDRFSGSGSGTDFTFTISSLQPEDIATYYCQQHYSIPFTFGQGTKLEIKRTVAAPSVFIFPPSDEQLKSGTASVVCLLNNFYPREAKVQWKVDNALQSGNSQESVTEQDSKDSTYSLSSTLTLSKADYEKHKVYACEVTHQGLSSPVTKSFNRGECGGGSIPPHVQKSVNNDMIVTDNNGAVKFPQLCKFCDVRFSTCDNQKSCMSNCSITSICEKPQEVCVAVWRKNDENITLETVCHDPKLPYHDFILEDAASPKCIMKEKKKPGETFFMCSCSSDECNDNIIFSEEYNTSNPD
notes: also called ADD19-15-03-G4
Turning to B3, the “EC50, luminescence (RLU) of PD-1 effector cells co-cultured with PD-L1 aAPC/CHO-K1 cells, PD-1/PD-L1 blockade bioassay” value in assay [5] amounted to 0.684 nM.

B4: Anti-PD-L1 mAb (antibody, human IgG1, kappa)
heavy chain H0: EVQLVQSGAEVKKPGASVKVSCKASGYIFTGYGITWVRQAPGQGLEWMGEIFPRRVQTYYSEKFKGRVTMTTDTSTSTAYMELRSLRSDDTAVYYCARDYDPYFALDYWGQGTTVTVSSASTKGPSVFPLAPSSKSTSGGTAALGCLVKDYFPEPVTVSWNSGALTSGVHTFPAVLQSSGLYSLSSVVTVPSSSLGTQTYICNVNHKPSNTKVDKKV[gap - human IgG1 Fc with changes]
light chain L0: DIQMTQSPSSLSASVGDRVTITCRASQDVSTAVDWYQQKPGKAPKLLIYSASYRYTGVPDRFSGSGSGTDFTFTISSLQPEDIATYYCQQHYSIPFTFGQGTKLEIKRTVAAPSVFIFPPSDEQLKSGTASVVCLLNNFYPREAKVQWKVDNALQSGNSQESVTEQDSKDSTYSLSSTLTLSKADYEKHKVYACEVTHQGLSSPVTKSFNRGEC
Turning to B4, the “EC50, luminescence (RLU) of PD-1 effector cells co-cultured with PD-L1 aAPC/CHO-K1 cells, PD-1/PD-L1 blockade bioassay” value is 0.422 nM in assay [1] and 0.414 nM in assay [5].

B5: ADD19-15-10 (other)
heavy: EVQLVQSGAEVKKPGASVKVSCKASGYIFTGYGITWVRQAPGQGLEWMGEIFPRRVQTYYSEKFKGRVTMTTDTSTSTAYMELRSLRSDDTAVYYCARDYDPYFALDYWGQGTTVTVSSASTKGPSVFPLAPSSKSTSGGTAALGCLVKDYFPEPVTVSWNSGALTSGVHTFPAVLQSSGLYSLSSVVTVPSSSLGTQTYICNVNHKPSNTKVDKRV[gap - human IgG1 Fc]GGGGSGGGGSGGGGSGGGGSGIPPHVQKSVNNDMIVTDNNGAVKFPQLCKFCDVRFSTCDNQKSCMSNCSITSICEKPQEVCVAVWRKNDENITLETVCHDPKLPYHDFILEDAASPKCIMKEKKKPGETFFMCSCSSDECNDNIIFSEEYNTSNPDGGGGSGGGGSGGGGSQCFCHLCTKDNFTCVTDGLCFVSVTETTDKVIHNSMCIAEIDLIPRDRPFVCAPSSKTGSVTTTYCCNQDHCNKIELPTTVKSSPGLGPVE
light: B4 light chain L0
notes: Heavy chain H5 = H2 with TBRI-ECD fused to its C-terminus by G15-linker; also called GSADD19-15-10
Consider B5, for which, in assay [2], binding was characterised by a dissociation constant (Kd) of 5.19 nM, the koff stood at 0.00107 s⁻¹ and the association rate constant (kon) was 206000 M⁻¹ s⁻¹. Besides, in assay [4], binding was characterised by a dissociation constant (Kd) of 6.73 nM, the dissociation rate constant (koff) is 0.00134 s⁻¹ and the kon is 200000 M⁻¹ s⁻¹.

B6: ADD19-15-01 (other)
heavy: B2 heavy
light: B4 light chain L0
notes: Anti-PD-L1 IgG1 with TBRII-ECD at the C-terminus of the heavy chain by G21-linker; also called GSADD19-15-01
With B6, the “EC50, luminescence (RLU) of PD-1 effector cells co-cultured with PD-L1 aAPC/CHO-K1 cells, PD-1/PD-L1 blockade bioassay” value in assay [1] worked out at 0.716 nM. In assay [2], this molecule yielded a Kd of 1.01 nM, a koff of 0.00031 s⁻¹ and a kon of 308000 M⁻¹ s⁻¹. In assay [3], this molecule registered a Kd of 8.55 nM, a koff of 0.00313 s⁻¹ and a kon of 366000 M⁻¹ s⁻¹. In assay [4], this molecule returned a Kd of 0.962 nM, a koff of 0.000325 s⁻¹ and an on-rate (kon) of 338000 M⁻¹ s⁻¹.
